# Reference: PubChem BioAssay (Tox21)
# “And” between values parts separate entries of the source, which are not always exact repeats. Equal entries are not always repeated. The source holds several records for some structures; these can differ, active in one and inactive in another. The source made the active and inactive calls. Unless noted, calls come from the whole dose curve; as a rule, active = well fitted curve in the direction sought with a large enough effect in the repeat runs; inconclusive = weak or mixed curves; inactive = no such curve, though single readings can be large; an effect the other way counts as inactive or inconclusive. A call without a number means that no potency is given here.
# Tests used:
# [1] = target: Aryl hydrocarbon receptor (Homo sapiens) (UniProt P35869); assay: qHTS assay to identify small molecule that activate the aryl hydrocarbon receptor (AhR) signaling pathway (AID 743085); note: nearly all actives have a fitted effect of over 15% in size; note: potency is the fitted concentration of half-maximal effect;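 for activation: HG2L7.5c1 human HepG2 liver cells with stably integrated DRE-driven firefly reporter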
# UniProt P35869, sequence (P35869 whole entry, looked up): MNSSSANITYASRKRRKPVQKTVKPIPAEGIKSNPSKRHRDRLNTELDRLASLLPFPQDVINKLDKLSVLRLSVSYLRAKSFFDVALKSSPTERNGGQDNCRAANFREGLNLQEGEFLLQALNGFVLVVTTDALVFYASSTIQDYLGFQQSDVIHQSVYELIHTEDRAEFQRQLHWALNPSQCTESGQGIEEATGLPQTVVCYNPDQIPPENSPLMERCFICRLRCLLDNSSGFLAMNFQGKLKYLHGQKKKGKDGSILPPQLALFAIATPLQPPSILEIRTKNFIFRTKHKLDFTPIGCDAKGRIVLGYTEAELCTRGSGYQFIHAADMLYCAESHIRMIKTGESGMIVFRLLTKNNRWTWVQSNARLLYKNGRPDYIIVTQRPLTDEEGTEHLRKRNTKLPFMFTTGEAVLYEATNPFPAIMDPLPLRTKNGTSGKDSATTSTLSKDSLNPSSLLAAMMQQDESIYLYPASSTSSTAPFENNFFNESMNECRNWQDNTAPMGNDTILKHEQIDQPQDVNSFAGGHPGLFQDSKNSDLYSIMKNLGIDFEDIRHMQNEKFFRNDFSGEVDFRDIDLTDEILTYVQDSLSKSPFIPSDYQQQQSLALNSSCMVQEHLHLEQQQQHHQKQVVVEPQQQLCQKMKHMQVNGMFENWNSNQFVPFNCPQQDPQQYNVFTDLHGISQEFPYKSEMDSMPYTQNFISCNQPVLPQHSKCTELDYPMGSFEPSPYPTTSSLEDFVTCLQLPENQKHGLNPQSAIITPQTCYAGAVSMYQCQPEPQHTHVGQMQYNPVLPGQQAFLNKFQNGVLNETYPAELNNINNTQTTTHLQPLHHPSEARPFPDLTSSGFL
# Summary of the method: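 Compounds were tested in HepG2 hepatocellular carcinoma cells harbouring a stably integrated luciferase gene under control of 20 DREs. Increased reporter signal after 24 h treatment at 37C was taken as AhR activation.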
# [2] = qHTS assay to identify small molecule agonists of the sonic hedgehog signaling (Shh) pathway - cell viability counter screen (AID 1259366); note: nearly all actives have a fitted effect of over 50% in size; note: potency is the fitted concentration of half-maximal effect
# Summary of the method: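 Cells are plated at 2,000 per well and left 4hr at 37C, 5% CO2 before compound addition. After 23hr of treatment, CellTiter-Fluor reagent is added for 1hr at 37C and fluorescence is measured.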
# [3] = qHTS assay to identify small molecule antagonists of the estrogen receptor alpha (ER-alpha) signaling pathway using the BG1 cell line (AID 743080; calls by dose curve;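 note: BG1 cells stimulated with 17beta-estradiol alongside compound; nearly all actives have a fitted effect of over 25% in size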; note: potency is the fitted concentration of half-maximal effect); conditions: BG1Luc4E2 ERE-luciferase antagonist mode, luminescence; activity change, negative = inhibition: at 70.3 µM (top of the series) unless noted
# Summary of the method: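 After 5 days in phenol-red-free 10% charcoal-stripped FBS medium, BG1-Luc-4E2 cells were seeded, left 24 h at 37 C, co-treated with compounds and 17beta-estradiol for 21.5 h, then assayed for viability and luciferase.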
# [4] = target: Estrogen receptor (Homo sapiens) (UniProt P03372); assay: qHTS assay to identify small molecule antagonists of the estrogen receptor alpha (ER-alpha) signaling pathway (AID 743069; active = well fitted curve in the direction sought with a large enough effect in the signal ratio in the repeat runs, not every such curve was filed as active; inconclusive = weak or mixed curves, or effect the other way; inactive = no such curve, though single readings can be large or run the other way; the % refers to the signal ratio; note: potency is the fitted concentration of half-maximal effect); conditions: HEK293 ER-alpha-UAS-bla, beta-lactamase ratio, antagonist mode; activity, negative = inhibition: at 69.4 µM (top of the series) unless noted
# UniProt P03372, sequence (P03372 whole entry, looked up): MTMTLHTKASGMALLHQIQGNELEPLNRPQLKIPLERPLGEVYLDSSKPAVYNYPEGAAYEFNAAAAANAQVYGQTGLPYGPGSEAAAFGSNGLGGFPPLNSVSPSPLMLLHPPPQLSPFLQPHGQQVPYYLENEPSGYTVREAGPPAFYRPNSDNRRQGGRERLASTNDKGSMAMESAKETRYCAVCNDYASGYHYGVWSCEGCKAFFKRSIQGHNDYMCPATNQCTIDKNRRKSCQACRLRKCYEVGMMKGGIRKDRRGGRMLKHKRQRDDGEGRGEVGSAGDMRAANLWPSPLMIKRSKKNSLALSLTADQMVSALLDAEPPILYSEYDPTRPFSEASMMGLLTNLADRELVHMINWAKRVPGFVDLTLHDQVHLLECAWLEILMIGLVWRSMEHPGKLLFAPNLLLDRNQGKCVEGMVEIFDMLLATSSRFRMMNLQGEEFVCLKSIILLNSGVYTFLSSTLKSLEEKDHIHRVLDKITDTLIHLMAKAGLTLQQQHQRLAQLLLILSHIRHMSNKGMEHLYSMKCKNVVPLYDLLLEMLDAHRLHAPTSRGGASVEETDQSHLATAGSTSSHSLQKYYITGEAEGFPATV
# Summary of the method: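 A 17beta-estradiol challenge was applied right after compound transfer to ER-alpha-UAS-bla HEK293 cells previously kept in charcoal-stripped serum. Plates stood 18 hr at 37C and 5% CO2; fluorescence was read following 2 hr FRET substrate loading at room temperature.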
# [5] = target: Vitamin D3 receptor (Homo sapiens) (UniProt P11473); assay: qHTS assay to identify small molecule agonists of the vitamin D receptor (VDR) signaling pathway (AID 743222; calls by dose curve); conditions: HEK293T VDR-UAS-bla, beta-lactamase FRET ratio, 16 h; activation: at 63.5 µM (top of the series) unless noted
# UniProt P11473, sequence (P11473 whole entry, looked up): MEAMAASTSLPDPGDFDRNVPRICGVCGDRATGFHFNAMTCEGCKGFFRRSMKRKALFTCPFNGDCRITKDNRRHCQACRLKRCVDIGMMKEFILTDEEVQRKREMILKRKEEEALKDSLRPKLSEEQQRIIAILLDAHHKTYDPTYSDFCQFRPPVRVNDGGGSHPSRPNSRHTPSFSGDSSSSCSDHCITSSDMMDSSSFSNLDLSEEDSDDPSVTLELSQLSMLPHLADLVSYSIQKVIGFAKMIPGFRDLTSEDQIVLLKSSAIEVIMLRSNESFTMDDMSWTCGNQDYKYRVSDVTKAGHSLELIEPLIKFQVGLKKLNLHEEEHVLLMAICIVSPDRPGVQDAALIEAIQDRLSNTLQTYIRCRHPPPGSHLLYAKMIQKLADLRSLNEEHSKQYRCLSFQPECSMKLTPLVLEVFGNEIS
# Summary of the method: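 Using LiveBLAzer B/G FRET detection, agonism was scored in VDR-bla cells exposed overnight (16 h, 37C) to DMSO-dissolved compounds; substrate incubation was 2 h at room temperature.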
# [6] = qHTS assay to identify small molecule antagonists of the androgen receptor (AR) signaling pathway - cell viability counter screen (AID 743033; note: nearly all actives have a fitted effect of over 45% in size; note: potency is the fitted concentration of half-maximal effect)
# [7] = qHTS assay to identify small molecule antagonists of the estrogen related receptor (ERR) signaling pathway from Tox21 library (AID 1224848); note: nearly all actives have a fitted effect of over 50% in size; note: potency is the fitted concentration of half-maximal effect
# Summary of the method: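 Tox21 10K compounds in DMSO tested for ERR pathway antagonism in NTP's ERR cell line; 18 h, 37 C exposure; ONE-Glo luminescence.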
# [8] = A CellTox Green Cytotoxicity Assay to monitor cytotoxicity in HEK293 cells - 16 hour (AID 1224888); note: nearly all actives have a fitted effect of over 35% in size; note: potency is the fitted concentration of half-maximal effect
# Summary of the method: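 Tox21 screen in HEK293: membrane-impermeant cyanine dye fluoresces on binding dead-cell DNA; compound pinned 5 h post-seeding, plates held at 37 C, signal read repeatedly through 40 h.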
# [9] = qHTS assay to identify small molecule antagonists of the sonic hedgehog signaling (Shh) pathway - cell viability counter screen (AID 1259367); note: potency is the fitted concentration of half-maximal effect; nearly all actives have a fitted effect of over 55% in size
# Summary of the method: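 Conditioned medium drove Shh signaling in 3T3 Gli1-Luc cells exposed to compounds at 37C and 5% CO2. Viability was determined from CellTiter-Fluor fluorescence, with reagent incubated 1 hr after 23 hr of treatment.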
# [10] = target: Thyrotropin receptor (Homo sapiens) (UniProt P16473); assay: qHTS assay to identify small molecule antagonists of the thyroid stimulating hormone receptor (TSHR) signaling pathway (AID 1259385; calls by dose curve; note: nearly all actives have a fitted effect of over 20% in size; note: potency is the fitted concentration of half-maximal effect); conditions: TSHR-HEK293 cAMP HTRF, TSH-stimulated antagonist mode; activity change, negative = inhibition: at 92.4 µM (top of the series)
# UniProt P16473, sequence (P16473 whole entry, looked up): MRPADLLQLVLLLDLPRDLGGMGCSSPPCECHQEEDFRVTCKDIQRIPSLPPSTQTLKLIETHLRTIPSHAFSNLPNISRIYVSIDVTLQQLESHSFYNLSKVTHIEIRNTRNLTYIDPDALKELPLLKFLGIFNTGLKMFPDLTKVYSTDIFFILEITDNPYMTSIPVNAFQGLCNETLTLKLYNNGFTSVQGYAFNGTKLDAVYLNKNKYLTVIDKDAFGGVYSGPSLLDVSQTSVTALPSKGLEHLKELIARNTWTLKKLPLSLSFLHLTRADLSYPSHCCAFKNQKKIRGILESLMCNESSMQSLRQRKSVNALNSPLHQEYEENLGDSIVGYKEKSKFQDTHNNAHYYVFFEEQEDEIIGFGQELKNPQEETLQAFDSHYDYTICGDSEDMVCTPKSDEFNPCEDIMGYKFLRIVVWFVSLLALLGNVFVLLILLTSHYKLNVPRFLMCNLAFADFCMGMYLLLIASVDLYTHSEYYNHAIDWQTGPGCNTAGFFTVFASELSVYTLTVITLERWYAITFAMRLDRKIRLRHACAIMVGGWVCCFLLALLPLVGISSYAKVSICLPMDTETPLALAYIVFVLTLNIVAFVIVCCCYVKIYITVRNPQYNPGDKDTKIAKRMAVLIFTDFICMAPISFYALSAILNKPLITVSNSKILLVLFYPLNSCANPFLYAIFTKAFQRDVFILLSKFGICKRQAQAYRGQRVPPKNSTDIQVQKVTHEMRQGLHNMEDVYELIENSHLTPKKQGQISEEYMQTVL
# Summary of the method: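 TSHR-HEK293 cells were plated and held 18 h at 37C/5% CO2, then given compound plus Ro20-1724 and stimulated with TSH at 1.5 ng/mL final. After 30 min at room temperature, cAMP was detected with cAMP-d2/anti-cAMP-cryptate (1 h) by fluorescence.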
# [11] = Caspase-3/7 induction in CHO-K1 cells by small molecules, qHTS cell viability counter screen (AID 1346979); note: potency is the fitted concentration of half-maximal effect; nearly all actives have a fitted effect of over 35% in size
# Summary of the method: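 Cytotoxicity counter screen run in parallel with the caspase-3/7 assay: CHO-K1 cells, 16hr compound treatment at 37C, then CellTiter-Fluor for 1hr before fluorescence reading.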
# [12] = Human pregnane X receptor (PXR) small molecule agonists, qHTS cell viability counter screen (AID 1346977); note: nearly all actives have a fitted effect of over 50% in size
# Summary of the method: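 Cytotoxicity counter screen run in the same wells as the PXR luciferase assay, using PXR-Luc HepG2 cells in charcoal-stripped serum medium. Viability: CellTiter-Fluor fluorescence after 24hr compound treatment.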
# [13] = qHTS RealTime-Glo MT Cell Viability Assay in HepG2 cells - 8 hour (AID 1224873); note: nearly all actives have a fitted effect of over 55% in size; note: potency is the fitted concentration of half-maximal effect
# Summary of the method: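 HepG2 cells mixed with RealTime-Glo MT reagents (NanoLuc plus cell-permeant prosubstrate) were seeded at 600 cells/well, incubated 5 h at 37 C/5% CO2, then pinned with compounds in DMSO; nonlytic luminescence tracked viability during 40 h treatment.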
# [14] = target: Nuclear receptor subfamily 1 group I member 3 (Homo sapiens) (UniProt Q14994); assay: qHTS assay to identify small molecule agonists of the constitutive androstane receptor (CAR) signaling pathway (AID 1224839); note: nearly all actives have a fitted effect of over 15% in size; note: potency is the fitted concentration of half-maximal effect;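 for activation: HepG2 cells stably carrying human CAR and a CYP2B6 luciferase reporter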
# UniProt Q14994, sequence (Q14994 whole entry, looked up): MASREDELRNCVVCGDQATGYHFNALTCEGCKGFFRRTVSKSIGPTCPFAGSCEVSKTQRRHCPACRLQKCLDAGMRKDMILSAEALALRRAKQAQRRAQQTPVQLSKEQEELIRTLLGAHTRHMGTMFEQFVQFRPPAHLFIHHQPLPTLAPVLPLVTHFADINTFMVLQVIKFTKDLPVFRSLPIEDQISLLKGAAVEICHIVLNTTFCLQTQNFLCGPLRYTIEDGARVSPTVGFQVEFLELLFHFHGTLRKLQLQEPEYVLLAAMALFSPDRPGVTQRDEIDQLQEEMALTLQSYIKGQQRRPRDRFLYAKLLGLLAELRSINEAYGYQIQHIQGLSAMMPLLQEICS
# Summary of the method: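 Cells were plated and incubated 4 hrs, then dosed with compounds at 15 concentrations. PK11195 was added to 0.75 uM final. After 24 hrs at 37 C, luciferase luminescence was measured.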
# [15] = Caspase-3/7 induction in HepG2 cells by small molecules, qHTS cell viability counter screen (AID 1346981); note: nearly all actives have a fitted effect of over 30% in size
# Summary of the method: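 Treatment of HepG2 cells with DMSO-delivered compounds ran 16 hr at 37 C following a 5-hr pre-incubation of 2,000 cells/well. CellTiter-Fluor fluorescence, read after 1 hr, served as the viability measure in a qHTS format.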
# [16] = qHTS assay to identify aromatase inhibitors - cell viability counter screen (AID 743084); conditions: MCF-7 aro ERE viability, CellTiter-Fluor, 24 h; activity change, negative = cytotoxicity: at 70.3 µM (top of the series);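 note: cells stimulated with testosterone during compound exposure; nearly all actives have a fitted effect of over 55% in size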
# [17] = qHTS assay to identify small molecule antagonists of the estrogen related receptor signaling pathway with the pleiotropic PPARgamma coactivator (PGC) from Tox21 10K library (AID 1224841; call rule not given here; note: actives are mostly falling curves and most rising ones were filed inactive; nearly all actives have a fitted effect of over 50% in size; note: potency is the fitted concentration of half-maximal effect)
# Summary of the method: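 Test chemicals dissolved in DMSO were applied to pre-incubated (6 h) PGC/ERR cells at 2,000 cells/well for an 18 h, 37 C treatment; reporter luminescence was then read using One-Glo.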
# [18] = target: Peroxisome proliferator-activated receptor delta (Homo sapiens) (UniProt Q03181); assay: qHTS assay to identify small molecule agonists of the peroxisome proliferator-activated receptor delta (PPARd) signaling pathway (AID 743212; calls by dose curve;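 note: HEK293H cells with PPARd UAS beta-lactamase reporter GeneBLAzer system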; note: potency is the fitted concentration of half-maximal effect); conditions: HEK293H PPARd-UAS-bla, beta-lactamase FRET ratio, 17 h; activation: at 62.6 µM (top of the series) unless noted
# UniProt Q03181, sequence (Q03181 whole entry, looked up): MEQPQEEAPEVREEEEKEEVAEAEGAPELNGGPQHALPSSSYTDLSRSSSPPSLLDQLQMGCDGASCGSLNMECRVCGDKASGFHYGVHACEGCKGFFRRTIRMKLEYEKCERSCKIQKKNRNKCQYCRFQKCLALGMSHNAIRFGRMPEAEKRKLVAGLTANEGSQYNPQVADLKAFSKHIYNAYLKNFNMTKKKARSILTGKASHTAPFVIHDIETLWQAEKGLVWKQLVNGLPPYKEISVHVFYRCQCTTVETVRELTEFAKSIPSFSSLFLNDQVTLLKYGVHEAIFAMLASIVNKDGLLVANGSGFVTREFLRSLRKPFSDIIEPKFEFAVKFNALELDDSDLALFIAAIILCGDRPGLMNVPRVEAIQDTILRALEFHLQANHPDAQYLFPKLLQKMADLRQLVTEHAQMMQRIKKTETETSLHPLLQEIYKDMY
# Summary of the method: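 Beta-lactamase reporter read by fluorescence (LiveBLAzer B/G FRET, 2 h, room temperature). Test agents, in DMSO, incubated at 37 C with PPARd-bla HEK293H cells.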
# [19] = target: Androgen receptor (Homo sapiens) (UniProt P10275); assay: qHTS assay to identify small molecule antagonists of the androgen receptor (AR) signaling pathway (AID 743035; active = well fitted inhibition curve with a large enough effect in the signal ratio in the repeat runs, not every such curve was filed as active; inconclusive = weak or mixed curves, or effect the other way; inactive = no such curve, though single readings can be large or run the other way; the % refers to the signal ratio; note: potency is the fitted concentration of half-maximal effect); conditions: HEK293 AR-UAS-bla, R1881-stimulated, beta-lactamase FRET, 16 h; activity change, negative = inhibition: at 58.5 µM (top of the series) unless noted
# UniProt P10275, sequence (P10275 whole entry, looked up): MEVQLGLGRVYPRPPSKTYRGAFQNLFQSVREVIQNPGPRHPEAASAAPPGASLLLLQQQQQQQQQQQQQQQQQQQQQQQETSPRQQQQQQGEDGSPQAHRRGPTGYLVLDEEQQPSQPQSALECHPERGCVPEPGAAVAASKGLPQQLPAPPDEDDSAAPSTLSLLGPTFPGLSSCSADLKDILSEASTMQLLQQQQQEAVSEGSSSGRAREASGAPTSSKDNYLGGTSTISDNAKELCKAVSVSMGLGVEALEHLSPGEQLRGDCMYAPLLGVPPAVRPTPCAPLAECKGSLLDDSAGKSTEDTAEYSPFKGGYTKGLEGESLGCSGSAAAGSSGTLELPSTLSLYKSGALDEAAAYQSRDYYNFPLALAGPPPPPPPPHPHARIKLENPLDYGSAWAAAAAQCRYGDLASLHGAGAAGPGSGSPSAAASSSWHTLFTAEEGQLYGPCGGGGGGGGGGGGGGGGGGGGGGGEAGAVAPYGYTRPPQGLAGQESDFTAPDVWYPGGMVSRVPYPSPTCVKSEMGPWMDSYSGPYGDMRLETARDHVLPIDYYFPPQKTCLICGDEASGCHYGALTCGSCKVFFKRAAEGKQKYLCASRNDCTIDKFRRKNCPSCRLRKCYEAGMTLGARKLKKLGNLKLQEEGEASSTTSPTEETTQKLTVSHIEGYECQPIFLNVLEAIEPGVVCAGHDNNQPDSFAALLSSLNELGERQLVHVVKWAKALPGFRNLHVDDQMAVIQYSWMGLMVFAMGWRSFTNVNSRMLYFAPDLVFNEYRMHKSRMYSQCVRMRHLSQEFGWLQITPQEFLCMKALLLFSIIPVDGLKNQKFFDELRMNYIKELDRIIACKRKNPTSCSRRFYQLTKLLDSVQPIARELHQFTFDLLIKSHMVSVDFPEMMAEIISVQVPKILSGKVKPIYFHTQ
# Summary of the method: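 R1881 agonist challenge of a HEK293 UAS-beta-lactamase AR reporter line in the presence of compound (16 h, 37C); signal taken as FRET fluorescence after 2 h with LiveBLAzer B/G substrate at room temperature.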
# [20] = qHTS assay to identify small molecule agonists of the peroxisome proliferator-activated receptor delta (PPARd) signaling pathway - cell viability counter screen (AID 743211); conditions: PPARd-bla HEK293H viability, CellTiter-Glo luminescence, 17 h; activity change, negative = cytotoxicity: at 62.6 µM (top of the series); note: nearly all actives have a fitted effect of over 55% in size
# Summary of the method: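 Counter screen for cytotoxicity run in parallel with the PPARd reporter screen. Beta-lactamase reporter HEK293H cells exposed to compounds 17 h; ATP-based CellTiter-Glo luminescence quantified viability.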
# Tags give direction and shape of the fitted curve or compound fluorescence and quenching.
smiles,measurement,setting,value
[Cl-].[Cl-].[Cl-].[Fe+3],Potency,[1],"inconclusive: 68.6 µM [activator, partial curve, poor fit]"
same,Potency,[2],"inconclusive: 68.6 µM [rising, partial curve, poor fit]"
CN1CC[C@]23c4c5ccc(O)c4O[C@H]2[C@@H](O)C=C[C@H]3[C@H]1C5,Potency,[3],inactive
same,Potency,[2],"inconclusive: 42.7 µM [cytotoxic, partial curve, poor fit]"
CCC1(CC)C(=O)NC(=O)NC1=O,Potency,[4],inactive
same,activation,[5],inconclusive: -0.985%
N=C(N)[Se],Potency,[6],inactive
Clc1ccccc1,Potency,[7],"inconclusive: 1.07 µM [inhibitor, single point]"
same,Potency,[8],inactive
same,Potency,[2],"inconclusive: 42.7 µM [cytotoxic, partial curve]"
same,Potency,[9],active: 26.9 µM
same,Potency,[10],"inconclusive: 26.9 µM [falling, single point]"
same,Potency,[11],active: 9.55 µM
CC(C)NCC(O)c1ccc(N)c(C#N)c1 (stereo not given),Potency,[12],inactive
CCCC(C)C1(CC)C(=O)N=C(S)NC1=O (stereo not given),Potency,[13],inactive
CCCCCCCCCCCCN(C)C,Potency,[6],"inconclusive: 13.8 µM [cytotoxic, partial curve, poor fit]"
ClCCCN1CCN(c2cccc(Cl)c2)CC1,Potency,[14],"inconclusive: 13.3 µM [activator, single point]"
Cc1cccc(OP(=O)(Oc2cccc(C)c2)Oc2cccc(C)c2)c1,Potency,[8],inactive
CC(C)(Cl)Cl,Potency,[5],inactive
same,Potency,[13],inactive
COC(=O)NS(=O)(=O)c1ccc(N)cc1,Potency,[2],inactive
same,Potency,[15],inactive
N#CCBr,Potency,[16],inactive
same,Potency,[17],inactive
same,Potency,[7],inactive
NNCc1ccccc1,Potency,[4],"inconclusive: 0.79 µM [activator, full curve, poor fit]"
same,Potency,[3],inconclusive: 27.8 µM
CCOP(=S)(OCC)Oc1ccc([N+](=O)[O-])cc1,Potency,[18],inactive
same,Potency,[14],"inconclusive: 34.8 µM [activator, partial curve] and inconclusive: 13.3 µM [activator, partial curve]"
CCSC(=O)N1CCCCCC1,Potency,[3],inactive
O=c1ccc(=O)[nH][nH]1,"activity change, negative = inhibition",[19],inconclusive: 1.04% [at 78.9 µM]
same,Potency,[20],inactive
same,Potency,[8],inactive
same,Potency,[11],"inconclusive: 68 µM [rising, partial curve, poor fit]"
O=C(O)COc1ccccc1,Potency,[1],inactive
CC1(C)C(=O)NC(=O)NC1=O,Potency,[6],inactive
same,Potency,[7],inactive
same,Potency,[8],"inconclusive: 54.9 µM [activator, single point]"
O=c1[nH]c(=O)n(Cl)c(=O)n1Cl,Potency,[8],inactive
O=C(O)C(F)(F)C(F)(F)C(F)(F)C(F)(F)C(F)(F)C(F)(F)C(F)(F)C(F)(F)F,Potency,[6],inactive
same,Potency,[4],active: 27.5 µM [inconclusive]
same,activation,[18],inconclusive: 0.204%
same,Potency,[13],"inconclusive: 21.9 µM [falling, single point]"
CC(C)N(Cc1ccccc1)C(=O)C(C)(C)C,Potency,[19],inactive
same,Potency,[14],"inconclusive: 30.6 µM [activator, partial curve]"
O=c1[nH]c(Cl)c(Cl)cc1Cl,Potency,[19],"inconclusive: 21.9 µM [rising, partial curve, poor fit]"
same,Potency,[17],"inconclusive: 61.1 µM [falling, partial curve, poor fit]"
same,Potency,[7],"inconclusive: 61.1 µM [inhibitor, partial curve]"
same,Potency,[8],inactive
C=CCc1ccccc1O,Potency,[18],"inconclusive: 1.38 µM [rising, partial curve]"
C1CCC(C2CCCCC2)CC1,Potency,[18],"inconclusive: 21.9 µM [rising, partial curve, poor fit]"
same,Potency,[14],inactive
same,Potency,[17],inactive
same,Potency,[10],inactive
same,Potency,[15],inactive
